# Laboratory results taken from PMC4336329 (PLoS ONE, 2015).
# In all, about 310,000 compounds went through this assay and about 2,200 (0.71%) showed an effect of 50% or more. The effect is printed as a negative number. The list shows a part of the results.
# Biological target: human ether-à-go-go-related gene (hERG) potassium channel (human, UniProt Q12809)
# Assay: primary screen, population patch clamp on CHO cells stably expressing hERG
# Chain of human ether-à-go-go-related gene (hERG) potassium channel (Q12809 whole entry, looked up): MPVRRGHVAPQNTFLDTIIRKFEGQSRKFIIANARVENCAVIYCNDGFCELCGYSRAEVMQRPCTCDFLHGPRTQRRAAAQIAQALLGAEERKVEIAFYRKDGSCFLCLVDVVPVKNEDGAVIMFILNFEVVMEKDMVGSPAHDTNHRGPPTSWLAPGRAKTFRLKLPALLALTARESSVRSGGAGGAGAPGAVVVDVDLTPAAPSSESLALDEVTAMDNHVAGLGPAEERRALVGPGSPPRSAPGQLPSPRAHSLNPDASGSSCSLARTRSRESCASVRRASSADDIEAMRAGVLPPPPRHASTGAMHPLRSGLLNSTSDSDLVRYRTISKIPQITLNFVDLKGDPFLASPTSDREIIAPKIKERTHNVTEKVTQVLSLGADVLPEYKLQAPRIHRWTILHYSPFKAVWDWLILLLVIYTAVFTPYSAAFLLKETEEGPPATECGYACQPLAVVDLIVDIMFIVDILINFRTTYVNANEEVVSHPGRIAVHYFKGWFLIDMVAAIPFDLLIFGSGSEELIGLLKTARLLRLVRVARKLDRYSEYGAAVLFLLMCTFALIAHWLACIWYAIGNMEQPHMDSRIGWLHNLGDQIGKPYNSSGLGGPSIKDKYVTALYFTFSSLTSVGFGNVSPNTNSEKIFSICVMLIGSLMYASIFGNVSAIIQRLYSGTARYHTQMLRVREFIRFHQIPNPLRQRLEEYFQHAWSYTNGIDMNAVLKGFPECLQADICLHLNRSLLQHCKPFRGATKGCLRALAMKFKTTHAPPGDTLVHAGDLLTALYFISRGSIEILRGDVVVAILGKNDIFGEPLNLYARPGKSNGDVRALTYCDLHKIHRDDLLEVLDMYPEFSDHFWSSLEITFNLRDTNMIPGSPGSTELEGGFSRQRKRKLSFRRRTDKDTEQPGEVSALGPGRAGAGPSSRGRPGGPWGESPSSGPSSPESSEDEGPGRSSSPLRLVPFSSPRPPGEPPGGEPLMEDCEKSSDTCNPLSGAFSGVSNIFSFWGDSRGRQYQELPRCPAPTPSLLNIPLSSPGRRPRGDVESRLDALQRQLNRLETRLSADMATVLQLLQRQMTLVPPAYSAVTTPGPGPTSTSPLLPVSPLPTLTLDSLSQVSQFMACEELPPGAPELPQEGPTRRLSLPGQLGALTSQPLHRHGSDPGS
row,Structure (SMILES),"hERG current change (%, negative = inhibition) at 1uM [%]"
1,O=C(COC(=O)c1cccc(-n2cnnn2)c1)c1ccccc1,3.78
2,O=C(NCCS(=O)(=O)c1ccc(Br)cc1)c1ccc(Cl)cc1Cl,3.11
3,COc1ccccc1N1CCN(C(=O)C2CCCCN2S(=O)(=O)c2ccc(C)cc2)CC1.Cl (stereo not drawn),7.9
4,Cc1ccc(NNC(=O)c2cc(C(C)(C)C)nn2Cc2ccccc2)cc1,9.25
5,Nc1nc(NCc2ccco2)nc(N2CCCCC2)c1[N+](=O)[O-],9.61
6,CCCCn1c(N)c(N(CCC(C)C)C(=O)c2cc(S(=O)(=O)N3CCOCC3)ccc2F)c(=O)[nH]c1=O,14
7,CCCCN(C(=O)CSCC(=O)Nc1cccc(C)c1)c1c(N)n(CCCC)c(=O)[nH]c1=O,5.9
8,CN(CC(=O)NC1CCCCC1)S(=O)(=O)c1cccc2cccnc12,2.48
9,O=C(c1ccc(NS(=O)(=O)c2ccc3[nH]c(=O)[nH]c3c2)cc1)N1CCN(c2ccccc2)CC1,13
10,O=c1c(C=NCc2ccccc2)c(NCc2ccccc2)nc2ccccn12,7.25
11,COc1ccc(NC(=O)c2ccccc2N(Cc2ccccc2)S(C)(=O)=O)c(OC)c1,9.9
12,O=C(CCCCl)OCc1cn(-c2ccc(Cl)cc2)nn1,6.16
13,CCc1ccc(NC(=S)/N=C(\N)Nc2nc(C)c3cc(CC)ccc3n2)cc1,10.6
14,CCn1cc(CN2CCC(n3nccc3NC(=O)c3ccccc3C)CC2)c(C)n1,-11.9
15,O=C(/C=C/c1ccc2c(c1)OCO2)Nc1nncs1,10.4
16,CC(C)CC(=O)NC(=S)Nc1cc(C(=O)O)ccc1Cl,6.17
17,COc1ccc(OC)c(N(CC(=O)Nc2ccccc2)S(=O)(=O)c2ccccc2)c1,8.92
18,COc1ccccc1Nc1nc(=O)[nH]nc1C,12.7
19,COc1cccc(NC(=O)CNC(=O)c2ccc(OC)c(OC)c2)c1,12.4
20,COc1ccc(-c2nn(-c3ccccc3)cc2/C=C2/SC(=S)N(CCC(=O)O)C2=O)c(C)c1,11.6
21,CCOC(=O)c1cc2ccc(OC(=O)c3ccco3)cc2oc1=O,-0.127
22,O=C(CCN1C(=O)C2C3CCC(C3)C2C1=O)OCC(=O)c1ccc(Cl)cc1 (stereo not drawn),-8.5

row,Structure (SMILES),"hERG current change (%, negative = inhibition) at 1uM [%]"
1,Cc1ccc(C)c(NC(=O)CSc2nnc([C@@H]3CCCN3C(=O)OC(C)(C)C)o2)c1,9.85
2,CC(C)C(NS(=O)(=O)c1cccc2nsnc12)C(=O)NCc1ccc2c(c1)OCO2 (stereo not drawn),4.42
3,CCOc1ccccc1N1C(=O)NC(=O)C(CCc2ccncc2)(CCc2ccncc2)C1=O,-4.16
4,COC(=O)[C@H](C)NC(=O)Nc1cccc(C(F)(F)F)c1,-6.44
5,COc1ccc2c(c1)[N+](C)(C)C(C)(C)C=C2C.[I-],10.4
6,Cc1ccc(-c2nc(C(=O)NCC3CCCO3)cc3c2[nH]c2ccccc23)cc1 (stereo not drawn),1.39
7,CCOC(=O)c1csc(CCNC(=O)c2oc3c(Cl)cc(C)cc3c2C)n1,14.9
8,O=C(N/N=C/c1cc(Cl)cc([N+](=O)[O-])c1O)C1CC1,3.83
9,O=C(CCS(=O)(=O)c1cccc2nonc12)NCCc1ccccc1Cl,6.08
10,CCn1nc(C)c(Br)c1-c1nc(-c2cccc(C)c2)no1,19
11,COc1ccc(C(=O)N/N=C/c2ccc(N(C)c3ccccc3)cc2)cc1,13.1
12,NC12CC3CC(C1)CC(CC(=O)O)(C3)C2,8.91
13,CCCNC(=O)CN(C)CC(=O)Nc1ccccc1C#N,14.2
14,CCNCc1ccc(OCc2ccccc2F)c(OC)c1.Cl,-0.576
15,CC(=O)N(CCc1cccc(C)c1)Cc1cc2cc(C)ccc2[nH]c1=O,7.78
16,COc1ccc(C2=NS(=O)(=O)N(C)C(C(=O)N3CCOCC3)=C2)cc1OC,2.08
17,O=C(N/N=C(\c1ccccc1)c1ccccn1)c1ccccc1Cl,3.77
18,CC(OC(=O)CCN=C1NS(=O)(=O)c2ccccc21)C(=O)NCc1ccccc1 (stereo not drawn),11.8
19,O=[N+]([O-])c1ccc(S(=O)(=O)Nc2nnc(C(F)(F)F)s2)cc1,7.3
20,O=C1CC(NCCN2CCOCC2)C(=O)N1Cc1ccc(N2CCCC2=O)cc1 (stereo not drawn),12
21,CN1CCN(C2CCCCC2NS(=O)(=O)c2ccc(Cl)cc2)CC1 (stereo not drawn),-5.18
22,CC(=O)c1cc2c(cc1NC(=O)CN1CCCCCCC1)OCO2.O=C(O)C(=O)O,7.8

row,Structure (SMILES),"hERG current change (%, negative = inhibition) at 1uM [%]"
1,CCN(CC)S(=O)(=O)c1cc(NS(=O)(=O)c2ccccc2)ccc1C,7.02
2,COCCNC(=O)Cn1cc(C(=O)c2ccco2)c2ccccc21,3.43
3,CN1CCN(C(=O)c2cc(Br)cn2C)CC1,15
4,Cc1ccc(-n2ccc(=O)c(-c3ccnc(SCc4cccc(Cl)c4)n3)n2)cc1,12
5,Cc1csc2cc(-c3cccc([N+](=O)[O-])c3)c(-c3cccc([N+](=O)[O-])c3)c[n+]12.[Br-],8.25
6,O=C(c1ccc(CNS(=O)(=O)c2ccccc2)cc1)N1CCC2(CC1)OCCO2,3.94
7,O=C(O)CCSc1nnc(COc2ccc([N+](=O)[O-])cc2)n1-c1ccccc1,8.37
8,CC1CCc2nc(NC(=O)c3ccc(S(=O)(=O)N4CCCc5ccccc54)cc3)sc2C1 (stereo not drawn),-3.86
9,COc1ccc(-n2nnnc2SCc2nc3ccccc3s2)cc1,11.9
10,Cc1c(NC(=O)CN(c2ccccc2)S(=O)(=O)c2ccc(F)cc2)c(=O)n(-c2ccccc2)n1C,-18.9
11,COc1ccc(C2C(C(=O)N3CCOCC3)c3ccccc3C(=O)N2c2ccc(OC)cc2)cc1 (stereo not drawn),0.073
12,COc1ccc(S(=O)(=O)N2CCN(C(=O)c3c(C)nn(-c4ccccc4)c3C)CC2)cc1,-10.8
13,O=C(CN1C(=O)CCC1=O)Nc1nc(-c2ccc(Cl)s2)cs1,4.34
14,CC(C)OC(=O)c1cn(-c2ccccc2)nc1-c1ccc2c(c1)OCCO2,10.4
15,CC1(C)CC(=O)C=C(c2cccc(CO)c2)C1,19.6
16,S=C(NCc1ccco1)Nc1ccc(Br)cc1Cl,8.69
17,Cn1nc2c(c1C(=O)O)CCCC2,0.235
18,COc1ccc(CN(C)C(=O)CCN(c2ccccc2)S(=O)(=O)c2ccc(C)cc2)c(OC)c1,3.29
19,COc1cccc(NC(=O)c2ccccc2-c2nc(-c3ccccc3)no2)c1,7.38
20,CCOC(=O)c1c(CN2CCOCC2)oc2ccc(OC(C)=O)cc12,14.3
21,CCCCn1c(O)c(C(CC)=Nc2ccc(OCC)cc2)c(=O)[nH]c1=O,-4.03
22,COc1ccc(NC(=O)CSCC(=O)Nc2nnc(CC(C)C)s2)cc1,19.4

row,Structure (SMILES),"hERG current change (%, negative = inhibition) at 1uM [%]"
1,CNc1ccc(Br)cc(C(=O)/C=C/c2cc(OC)ccc2OC)c1=O,2.29
2,N#CC(C(=O)NC1CCCCC1)=C1CCCCC1,11
3,COc1ccc(CCNC(=O)C(=O)N2CCCC2)cc1OC,6.5
4,CCOc1ccccc1OC(=O)CN1C(=O)c2ccccc2C1=O,18.3
5,Cl.c1ccc2c(N3CCOCC3)c3c(nc2c1)CCC3,0.62
6,O=C(N/N=C/C=C/c1ccc([N+](=O)[O-])cc1)C1COc2ccccc2O1 (stereo not drawn),-23.4
7,Cc1cccc(C(=O)Nc2nnc(C3=COCCO3)o2)c1,12.9
8,COc1ccc(OC)c(C2SCCN2S(=O)(=O)c2cccc(C(F)(F)F)c2)c1 (stereo not drawn),15.1
9,C=C(C)C(=O)Nc1cccc(C2=NOC3(C2)C[C@@H](C(N)=O)N(C(=O)c2ccc(Cl)cc2)C3)c1 (stereo partly drawn),-15.8
10,O=C(O)c1ccc(NCCC2=CCCCC2)c([N+](=O)[O-])c1,29.7
11,CNc1oc(-c2ccccc2Cl)nc1C#N,8.73
12,O=[N+]([O-])NC1=NCCN1Cc1ccc(Cl)nc1,10
13,CCOC(=O)C1(CCCc2ccccc2)CCN(C(=O)CSC)CC1,3.88
14,O=C(Nc1cc(Cl)ccc1-n1cncn1)c1ccco1,10.8
15,COCCCN1C(=O)c2ccc(C(=O)NCCc3ccccc3)cc2C1=O,11.9
16,O=C(NC1CCCCC1)C(c1ccccc1)N(C(=O)Cc1ccsc1)c1ccccc1 (stereo not drawn),5.66
17,COc1ccc(CCN2C(=O)CC(N3CCN(C/C=C/c4ccccc4)CC3)C2=O)cc1OC (stereo not drawn),-14.1
18,CS(=O)(=O)Nc1ccccc1C(=O)N1CCCC1,15.7
19,O=C(CSc1nc2ccc([N+](=O)[O-])cc2s1)NC1CCS(=O)(=O)C1 (stereo not drawn),0.439
20,CCOC(=O)c1cc2sccc2n1Cc1ccc(C#N)cc1,6.14
21,CCc1nc(Nc2ccc3c(c2)OCCO3)c2oc3ccccc3c2n1.Cl,12
